Laboratory results: PubChem BioAssay AID1347073 (National Center for Advancing Translational Sciences (NCATS), 2019)
About 200 (0.44%) of roughly 45,000 compounds were called active. Not shown: some 7% with an inconclusive outcome. Calls come from the whole dose curve; as a rule, active = well fitted activation curve with a large enough effect; inconclusive = small, poorly fitted or top-dose-only effect; inactive = no such curve, though single readings can be large or run the other way. Some of the results follow.

Experiment: qHTS of TDP-43 Inhibitors: NCGC Sytravon Library Screen; note: nearly all actives have a fitted effect of over 55% in size; for growth rescue (activation): 0% is about no effect
Settings: yeast TDP-43 toxicity rescue, BacTiter-Glo growth, 24 h; series mostly up to 46.1 µM; growth rescue (activation): at the top concentration
Summary of the method: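 TDP-43-expressing yeast, pregrown in raffinose, seeded at OD600 0.02 in galactose medium with compound for 24 hr at 30 deg C. Growth read by BacTiter-Glo luminescence, so rescue of toxicity appears as activation.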
Potency is the fitted concentration of half-maximal effect.

Compound	growth rescue (activation)	Potency
COc1cc(C(O)c2nc(/C=C/c3ccc(C(F)(F)F)cc3)cs2)ccc1F (stereo not drawn)	inactive: -67.1%	
Cc1nnc(NC(=O)C(C)Sc2nnc(-c3ccco3)n2C(C)C)s1 (stereo not drawn)	inactive: 6.45%	
COc1cc(C(=O)NNC(=O)c2ccco2)cc(OC)c1OC	inactive: -27.4%	
CC(C)CCOc1ccc(C(=O)NCC(c2ccco2)N(C)C)cc1 (stereo not drawn)	inactive: 6.72%	
Cc1ccc(C)n1-c1nnc(N2CCCC(C(=O)NCc3cccc(Cl)c3)C2)s1 (stereo not drawn)	inactive: 5.82%	
COc1ccc(C(NC(=O)C2CCN(CCOc3ccc(F)cc3)CC2)c2cccs2)cc1 (stereo not drawn)	inactive: -1.24%	
COc1ccc(CNC(=O)C2CCC(CNc3c(N4CCCCC4)c(=O)c3=O)CC2)cc1 (stereo not drawn)	inactive: -7.87%	
CSc1nc(-c2ccccc2)c(C#N)c(=O)n1C	inactive: 20.1%	
Cc1c(C2=CCN(S(=O)(=O)c3ccc(Br)cc3)CC2)c2ccccc2n1C	inactive: -0.538%	
COc1ccc(CCNC(=O)C23CCC(C)(C(=O)C2=O)C3(C)C)cc1OC (stereo not drawn)	inactive: 1.89%	
Cc1ccc(NC(=O)NC(=O)CSc2n[nH]c(N)n2)c(C)c1	inactive: -7.66%	
O=[N+]([O-])c1cc(S(=O)(=O)N2CCCC2)ccc1NCCc1ccccc1	inactive: 13.9%	
Cc1nn(CC(=O)Nc2ccc3c(c2)oc2ccccc23)c(=O)c2ccccc12	inactive: 22.6%	
C(=C\c1ccco1)/C1=NN(c2ccccc2)C(c2ccco2)C1 (stereo not drawn)	inactive: -22.6%	
CC(C)Oc1ccc(F)cc1-c1cc(C(=O)Nc2ccccc2)[nH]n1	inactive: 17.1%	
CCOc1ccc(/C=N/Nc2ccc(Cl)nn2)c(O)c1	inactive: -1.47%	
COc1cc(C(=O)Nc2ccc(S(=O)(=O)Nc3cc(C)on3)cc2)cc(OC)c1OC	inactive: -5.16%	
Cc1c(Br)cccc1NC(=O)C1(C)CCN1CCc1ccccc1 (stereo not drawn)	inactive: 1.27%	
CC1=C(C)C(c2ccccc2)NC(=S)N1 (stereo not drawn)	inactive: 16.1%	
Cc1ccc(C(=O)N2CCN(S(C)(=O)=O)C2)cc1	inactive: 12.5%	
COc1cccc(N2CCN(C(=O)c3ccc(CS(=O)c4ccc(C)cc4)o3)CC2)c1 (stereo not drawn)	inactive: -15.2%	
COc1ccccc1N1CN(CCc2ccccc2)CNC1=S	inactive: 5.96%	
CC(C)n1c(SCC(=O)NC2CCCCC2)nnc1-c1ccco1	inactive: -10.8%	

Compound	growth rescue (activation)	Potency
O=C(CN1CCN(S(=O)(=O)c2ccccc2)CC1)Nc1ccc([N+](=O)[O-])cc1	inactive: 21.1%	
CCOc1ccc(NC(=O)c2ccccc2O)cc1	inactive: -41.8%	
COCC(=O)OCC(=O)Nc1ccc(Cl)cc1[N+](=O)[O-]	inactive: 27%	
CCCSc1nc2sc3c(c2c(=O)n1Cc1ccccc1)CC(C)(CC)OC3 (stereo not drawn)	inactive: 3.31%	
COc1ccc(NC(=O)CSc2cc(C)nc3c(-c4ccccc4)cnn23)cc1	inactive: 6.09%	
COc1ccc(-n2nnc3c(SCC(=O)c4ccccc4)ncnc32)cc1	inactive: 20.4%	
CSc1cccc(NC(=O)c2ccc(CN3CCc4ccccc4C3)cc2)c1	inactive: 2.08%	
CCOc1ccc(S(=O)(=O)Nc2ccc(OC)nc2)cc1	inactive: -3.84%	
CC(NC(=O)C(c1ccccc1)c1ccccc1)c1ccc(S(N)(=O)=O)cc1 (stereo not drawn)	inactive: 5.97%	
CN(C)CCCn1c(=S)[nH]c2sc3c(c2c1=O)CCCC3	inactive: 8.43%	
COc1cc(OC)cc(C(=O)NCC(=O)OCC(=O)Nc2ccc(C)c(S(=O)(=O)N3CCOCC3)c2)c1	inactive: 26.8%	
CC(NC(=O)Cn1cc(C(F)(F)F)cc(Cl)c1=O)c1ccccc1 (stereo not drawn)	inactive: -7.36%	
O=C(COC(=O)/C=C/c1cccc(C(F)(F)F)c1)NCc1ccc(F)cc1	inactive: 4.69%	
N#Cc1cc(O)c(-n2nnc3ccccc32)cc1C#N	inactive: 17.8%	
CN(CC(=O)Nc1c(F)cccc1F)Cc1cccs1	inactive: 1.82%	
CC1(C)C(=O)Nc2ccccc2N1C(=O)CSc1nnc2c(Cl)cc(Cl)cn12	inactive: 2.12%	
S=c1[nH]ccn1-c1cccc(Cl)c1	inactive: 13%	
CN(C)c1ccc(NC(=O)CSc2n[nH]c(-c3ccncc3)n2)cc1	inactive: 3.86%	
O=C(Cn1cnc2ccccc21)N/N=C/C(Br)=C/c1ccccc1	inactive: 12.7%	
Cc1ccc(-c2nn(C)c(=O)c3ccccc23)cc1CN1CCCCC1	inactive: -4.56%	
COc1ccc(CNS(=O)(=O)NCc2ccccc2)cc1	inactive: -13.7%	
CCN(CC)P(=O)(Nc1ccc([N+](=O)[O-])cc1)c1c(C)nn(CCC#N)c1NC(=O)c1ccc(Cl)cc1 (stereo not drawn)	inactive: 4.46%	
O=C(CCN1C(=O)c2ccccc2C1=O)NCc1cccc(Cl)c1	inactive: 22.5%	

Compound	growth rescue (activation)	Potency
CCSc1nsc(NC(=O)Nc2ccccc2Cl)n1	inactive: 8.43%	
CCOC(=O)C1(C)CCCCN1C(=O)c1ccc(F)c(C)c1 (stereo not drawn)	inactive: 11.9%	
COc1ccc(CCCc2nnc(SCC(=O)Nc3ccc(OC)cc3)o2)cc1		inactive
Cc1onc(-c2c(F)cccc2Cl)c1C(=O)OCC(=O)N1C(C)CCCC1C (stereo not drawn)	inactive: 11.1%	
CC(=O)c1c(C)[nH]c(C(=O)Nc2cccc(S(=O)(=O)N3CCOCC3)c2)c1C	inactive: -11.1%	
CCc1ccc2nc(NC(=O)CCCc3cccs3)sc2c1	inactive: -3.69%	
Cc1ccc(C(=O)COC(=O)C(C)N2C(=O)C3C4CCC(C4)C3C2=O)cc1C (stereo not drawn)	inactive: 17%	
COCCNC(=O)c1cc(S(=O)(=O)N(C)c2ccccc2OC)ccc1C	inactive: 27.1%	
COc1ccc(CCNC(=O)c2ccc(OC)c(OC)c2)cc1OC	inactive: -14.6%	
CCOCCCN(C(=O)c1snc(C(N)=O)c1N)C(C(=O)NC1CCCC1)c1ccc(O)cc1 (stereo not drawn)	inactive: 0.135%	
CN(C)C(CNC(=O)c1ccc(NC(=O)CC#N)cc1)c1ccccc1 (stereo not drawn)	inactive: 16.3%	
O=C(NC1CC1)C1CCN(C2CCN(C(=O)/C=C/c3cccc(F)c3F)CC2)CC1	inactive: 7.59%	
CCOc1ccc(NC(=O)C2CCN(c3nnc(-n4c(C)ccc4C)s3)CC2)cc1	inactive: 8.12%	
O=C(CCCc1ccccc1)Nc1ccc(S(=O)(=O)N2CCOCC2)cc1	inactive: 13.8%	
CN(Cc1ccc(F)cc1)C(=O)COc1ccccc1-c1ccccc1		active: 25.1 µM
CC(C)(C)c1ccc(C(=O)O)c(C(=O)c2ccc(C(=O)O)cc2)c1	inactive: -24.5%	
COc1ccc(-c2n[nH]c(C)c2-c2ccccc2OC)c(O)c1	inactive: -0.59%	
O=C(NCCc1c[nH]c2ccccc12)c1cccc(S(=O)(=O)Nc2ccccc2Cl)c1	inactive: 3.12%	
COc1ccc(-c2nc3ncccc3o2)cc1NC(=O)c1ccco1	inactive: -6.84%	
COCCNC(=O)C1Cc2c(-c3ccc(NC(C)=O)cc3)ccnc2O1 (stereo not drawn)	inactive: 15.6%	
O=C(Cc1cccs1)N/N=C/c1ccco1	inactive: 3.09%	
CCN(C(=O)COC(=O)/C=C/c1c(C)nn(-c2ccccc2)c1C)C1CCS(=O)(=O)C1 (stereo not drawn)	inactive: -1.59%	
